# Reference: PubChem BioAssay AID686978 (National Center for Advancing Translational Sciences (NCATS), 2013)
# Values joined by “and” are separate entries in the source; they are usually repeats but may differ in a detail not shown here. Equal entries are not always repeated. The campaign covered roughly 420,000 compounds. About 64,000 (15%) were called active. Inconclusive results, whose numbers are uncertain, are shown with a selection of clear calls. Calls follow the shape of the dose curve; as a rule, active = well fitted inhibition curve with a large enough effect; inconclusive = small, poorly fitted or top-dose-only effect; inactive = flat fitted curve, though single readings scatter. A potency beside an inconclusive call is a rough fit, not a confirmed value.
# Assay: qHTS for Inhibitors of human tyrosyl-DNA phosphodiesterase 1 (TDP1): qHTS in cells in absence of CPT; also: nearly all actives have a fitted effect of over 55% in size
# Conditions: DT40 Tdp1-/- hTDP1 cells, no CPT, ATP luminescence, 48 h; activity change, negative = growth inhibition: at 46.2 µM (top of the series)
# Outline: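 Chicken DT40 Tdp1-/- cells complemented with human TDP1, screened without camptothecin (DMSO vehicle only), 400 cells/well. Compounds pin-transferred, cells incubated at 37 °C for at least 48 hr. Growth read as ATP-dependent luminescence (CellTiter-Glo, 30 min at RT).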
# % is scaled to controls: 0 for no effect and ±100 for the full control effect; potency is read from the fitted curve at half-maximal effect; tags tell the direction and shape of the fitted curve.
SMILES,Potency,"activity change, negative = growth inhibition"
Cc1ccc(Cl)c(OCC(=O)N(C)CC(=O)Nc2ccc(N3CCOCC3)cc2)c1,"inconclusive: 29.1 µM [inhibitor, single point]",–
CC(C)(C)C(=O)[C@@H]1[C@@H]2C(=O)N(C3CCCCC3)C(=O)[C@@H]2[C@H]2c3ccccc3C=CN12,"inconclusive: 18.4 µM [inhibitor, single point]",–
COCCN(C(=O)CCCC(=O)Nc1ccccn1)C(C(=O)NC1CCCC1)c1ccc(C)cc1 (stereo not drawn),"inconclusive: 29.1 µM [inhibitor, single point]",–
O=C(O)c1ccc(/C=C2\SC(=S)N(NC(=O)c3ccc(Br)cc3)C2=O)cc1,–,inactive: -2.08%
O=C(Nc1ccc(-c2nc3cc(NC(=O)c4ccc(F)cc4)ccc3o2)cc1)c1ccc(F)cc1,–,inactive: -1.59%
O=C(COc1ccc(Cl)cc1)N1CCN(Cc2ccc3c(c2)OCO3)CC1,"inconclusive: 21.1 µM [inhibitor, single point] and inconclusive: 29.1 µM [inhibitor, single point]",–
Cc1sc2nc(SCC(=O)NCc3ccco3)n(-c3ccccc3)c(=O)c2c1C,"inconclusive: 8.2 µM [inhibitor, partial curve]",–
CC(=O)CC[N+](C)(C)C,active: 14.6 µM,–
CC1(C(=O)NS(=O)(=O)c2ccccc2)CCN1C(=O)c1ccccc1CCc1ccccc1 (stereo not drawn),–,inactive: -1.43%
COc1ccc(NS(=O)(=O)c2cccc(C(=O)N3CCC3)c2)cc1,–,inactive: -16.1%
CCCc1cc(=O)oc2cc(C)cc(OCC(=O)N3CCC(C(N)=O)CC3)c12,–,inactive: -2.46%
Cc1ccc(N2CC(C(=O)OCC(=O)NNC(=O)c3ccccc3)CC2=O)cc1 (stereo not drawn),–,inactive: 4.04%
CCCCn1c(=N)c(S(=O)(=O)c2ccc(C)cc2)cc2c(=O)n3cc(C)ccc3nc21,–,inactive: 0.653%
CCc1ccc(OCC(O)Cn2c(N3CCCCC3)nc3c2c(=O)[nH]c(=O)n3C)cc1 (stereo not drawn),"inconclusive: 29.1 µM [inhibitor, single point]",–
COc1ccc(C(=O)c2sc(Nc3ccccc3)nc2C)cc1,"inconclusive: 20.6 µM [inhibitor, single point]",–
Cc1ccc(CCNC(=O)C2CCN(S(=O)(=O)N3CCCCC3)CC2)cc1,–,inactive: -24.6%
Cc1nn2c(NCC(C)C)c3c(nc2c1-c1ccccc1)CCC3,"inconclusive: 10.3 µM [inhibitor, single point]",–
COc1cccc(C2(O)CCN(C(=O)C3CCC3)CC2)c1,–,inactive: -11.8%
Nc1ccc(NC(=O)c2cccc(C(=O)Nc3ccc(N)cc3Cl)c2)c(Cl)c1,active: 5.17 µM and active: 16.4 µM,–
COc1ccc(S(=O)(=O)N2CCC(C(=O)NCCCc3ccccc3)CC2)cc1,–,inactive: -24.5%
CCC(C)(C)NC(=O)CSc1nc(Cc2ccccc2)nc2ccccc12,"inconclusive: 23.1 µM [inhibitor, single point]",–
COc1ccc(-c2ccc(C(=O)Nc3cccc(C(C)=O)c3)c3occc23)c(C)c1,active: 8.2 µM,–
COc1cc(N2CCCC2)c(OC)cc1/C=C(/C#N)c1ccc(Br)cc1,"inconclusive: 29.1 µM [inhibitor, single point]",–
CNC(=O)c1cc(S(=O)(=O)Nc2ccc(C)cc2C)ccc1C,"inconclusive: 29.1 µM [inhibitor, single point]",–
Cc1nn(C(C)C(=O)Nc2ccc(C(C)C)cc2)c(=O)c2c1sc1ccccc12 (stereo not drawn),"inconclusive: 25.9 µM [inhibitor, single point]",–

SMILES,Potency,"activity change, negative = growth inhibition"
O=C(Nc1scc(-c2ccc(Br)cc2)c1C(=O)O)c1ccccc1F,active: 16.4 µM,–
CCCCNC(=O)CSc1nnc(Cc2ccccc2)n1CC,–,inactive: -9.66%
CNc1snc(C)c1C(=O)OC(C)C(=O)Nc1ccc(F)cc1 (stereo not drawn),"inconclusive: 10.3 µM [inhibitor, partial curve, poor fit]",–
Cn1nc(-c2ccccn2)nc2c(=O)n(C)c(=O)nc1-2,active: 0.517 µM,–
O=c1nc2n(c3sc4c(c13)CCCC4)C(CBr)CS2 (stereo not drawn),"inconclusive: 18.4 µM [inhibitor, single point]",–
CCC(=O)c1ccc(OCC(O)CNCCc2ccc(Cl)cc2)cc1 (stereo not drawn),"inconclusive: 29.1 µM [inhibitor, single point]",–
CC(=O)N1c2ccc(S(=O)(=O)N3CCCC(C(=O)NC4CCCC(C)C4C)C3)cc2CC1C (stereo not drawn),"inconclusive: 20.6 µM [inhibitor, single point]",–
CC(C)CNC(=O)C1(C)CCCN1C(=O)C(C)(C)Oc1ccc(Cl)cc1 (stereo not drawn),active: 16.4 µM,–
COCCNC(=O)C(OC(=O)C1=Cc2ccccc2OC1)C(C)C (stereo not drawn),–,inactive: -26.1%
Cc1cc(C)c(C(=O)COC(=O)Cn2nc(-c3ccccc3)oc2=O)cc1C,–,inactive: -17.3%
CC(=O)Nc1ccc(OS(=O)(=O)c2ccccc2C)cc1,"inconclusive: 29.1 µM [inhibitor, single point]",–
Cc1cccc(N2CCN(C(=O)c3cccs3)CC2)c1C,"inconclusive: 8.2 µM [inhibitor, partial curve]",–
CC(=O)Oc1ccc(C(=O)Nc2cc(C)ccc2NC(=O)COc2ccccc2)cc1,"inconclusive: 18.4 µM [inhibitor, single point]",–
CC(C)CNc1ncnc2[nH]ncc12,–,inactive: -22.6%
CCC(C)(C)n1nnnc1C(c1ccccc1)N1CCN(C2CCCC2)CC1 (stereo not drawn),–,inactive: -28.1%
Cc1cn([C@H]2C[C@H](O)[C@@H](CNS(=O)(=O)c3ccc(NS(=O)(=O)N(C)C)cc3)O2)c(=O)[nH]c1=O,–,inactive: -24.5%
COc1cc(-c2nc(SCC(=O)Nc3ccc(C)cc3)c(-c3ccc(F)cc3)[nH]2)cc(OC)c1OC,active: 14.6 µM,–
CCCn1c2ccccc2c2cnn(CC(=O)NCC3CCN(Cc4ccc(F)cc4)CC3)c(=O)c21,"inconclusive: 25.9 µM [inhibitor, single point]",–
CCc1ccccc1NC(=O)c1cc(S(=O)(=O)N2CCc3ccccc32)ccc1F,active: 10.3 µM,–
COC(=O)CNC(=O)Cn1nc(C)c([N+](=O)[O-])c1C,–,inactive: 21.1%
OC[C@@H]1CN(Cc2cccc(C(F)(F)F)c2)C[C@H](n2cnc3c(NCc4ccc(F)cc4)ncnc32)O1,active: 9.2 µM,–
O=C(Nc1ccncc1)C1CCN(S(=O)(=O)c2ccc(Cl)cc2)CC1,active: 16.4 µM,–
O=C(CN1CCN(C(=O)c2ccccc2)CC1)Nc1cccc(S(=O)(=O)N2CCCC2)c1,"inconclusive: 29.1 µM [inhibitor, single point]",–
CC(C)CC(NC(N)=O)C(=O)Nc1ccc(Oc2ccccc2)cc1 (stereo not drawn),–,inactive: -6.15%
Cc1cc(NC(=O)CSc2nnc(-c3ccccc3F)n2N)no1,–,inactive: 4.7%

SMILES,Potency,"activity change, negative = growth inhibition"
COc1ccc(C(=O)NCCS(=O)(=O)N2CCCCCC2)cc1,–,inactive: -23.5%
O=C(Nc1cccc(C(F)(F)F)c1)C1CC(=O)N(CCc2ccccc2)C1 (stereo not drawn),"inconclusive: 29.1 µM [inhibitor, single point]",–
CCC(C)NC(=O)C1CCC(=O)N1CCc1ccccc1 (stereo not drawn),–,inactive: -2.27%
O=C(c1cc(Br)ccc1O)N1CCN(S(=O)(=O)Cc2ccccc2)CC1,active: 11.6 µM,–
O=C(N/N=C/c1ccc(O)c(O)c1O)/C(=C/c1ccc([N+](=O)[O-])cc1)NC(=O)c1ccccc1,active: 5.8 µM,–
CCOC(=O)/C=C/C(=O)Nc1cccc([N+](=O)[O-])c1,active: 4.11 µM,–
Cc1ccc(/C=C2\SC(=S)N(CCC(=O)NNS(=O)(=O)c3ccc(C)cc3)C2=O)cc1,–,inactive: -24.8%
Cc1ccccc1CNC(=O)C1=Cc2ccccc2OC1,"inconclusive: 29.1 µM [inhibitor, single point]",–
NC(=O)c1sc2nc3c(cc2c1N)CCCCCC3,"inconclusive: 16.4 µM [inhibitor, single point]",–
COc1ccc(OC)c(C2CC(=O)N3CN(c4cccc(Cl)c4C)CSC3=C2C#N)c1 (stereo not drawn),"inconclusive: 18.4 µM [inhibitor, single point]",–
COc1cc(C2C(C#N)=C(N)Oc3cc(C)n(CCN4CCOCC4)c(=O)c32)cc(OC)c1OC (stereo not drawn),–,inconclusive: -36.1% [inhibitor]
N#C/C(=C\c1cccc([N+](=O)[O-])c1)c1ccccn1,active: 14.6 µM,–
COc1ccc(NC(=O)CS(=O)CC(=O)N2CCN(C3CCCC3)CC2)cc1 (stereo not drawn),–,inactive: 0.158%
O=C(Nc1ccccc1-c1nnc(SCc2ccccc2)o1)c1ccccc1,"inconclusive: 14.6 µM [inhibitor, partial curve]",–
Cn1c(COc2ccccc2)nnc1SCc1cc(=O)[nH]c2ccccc12,"inconclusive: 6.51 µM [inhibitor, partial curve]",–
COc1cc(Cn2c3ccc(NC(=O)CC(C)c4ccccc4)cc3c(=O)n2C)ccc1F (stereo not drawn),"inconclusive: 16.4 µM [inhibitor, single point]",–
CC(C)CC1(C(=O)NCc2cc(F)cc(C(F)(F)F)c2)C=CCN1C(=O)c1ccccc1 (stereo not drawn),active: 29.1 µM,–
Cc1ccnc(NC(=O)CCC(=O)N(CC(=O)NCc2ccc(F)cc2)Cc2ccccc2)c1,"inconclusive: 18.4 µM [inhibitor, single point]",–
Cc1ccc(-c2cc(C(=O)N3CCCc4ccccc43)c3ccccc3n2)cc1,active: 23.1 µM,–
CC(=O)Nc1cccc(-c2cc3nc(NCc4cccnc4)n(C)c(=O)c3s2)c1,"inconclusive: 23.1 µM [inhibitor, single point]",–
Cc1nn2c(CN(C(=O)c3ccco3)c3ccccc3)nnc2c2ccccc12,"inconclusive: 20.6 µM [inhibitor, partial curve]",–
CCCc1cc(=O)n2c(C(=O)Nc3ccc(OCC)cc3)c(C(=O)Nc3ccc(C)cc3)sc2n1,"inconclusive: 16.4 µM [inhibitor, single point]",–
COc1ccc(NC(=O)CCS(=O)(=O)c2nc(-c3cccs3)cc(C(F)(F)F)n2)cc1,active: 5.17 µM,–
